Results: PubChem BioAssay AID463173 (ICCB-Longwood Screening Facility, Harvard Medical School, 2010)
The whole screen tested about 52,000 compounds, of which about 1,700 (3.3%) were called active. Cut-off read from the data, not from the text of the source: active = survival mostly below about 52% (no sharp cut-off); inactive = mostly above about 56%. The list shows a part of the results.

System: Wild type
Assay: S. aureus survival, RN4220 and DeltatarO strains – OD600, teichoic acid synthesis inhibitors, primary screen (AID 463173)
Conditions: S. aureus RN4220 wild type/DeltatarO growth, OD600, 18 h, hits give low values, screened at 18.75 µg/mL (by protocol)

Row | SMILES | survival
1 | Cc1ccc(NC(=O)c2nnn(Cc3cccc(C(F)(F)F)c3)c2N)c(C)c1 | inactive: 97%
2 | Cc1cccc(Cn2c(SCc3ccc(C(=O)NCc4ccccc4)cc3)nc3cccnc32)c1 | inactive: 64%
3 | COc1ccc(CNC(=O)CCc2c(C)c3ccc(OC)c(C)c3oc2=O)cc1OC | inactive: 79%
4 | COc1ccc(NC(=O)Cn2cc(C(=O)c3ccncc3)c(=O)c3cc(C)ccc32)cc1Cl | inactive: 84%
5 | COC(=O)c1ccc(-n2nnc(-c3nc(-c4ccccc4Cl)no3)c2C)cc1 | inactive: 59%
6 | CCNC(=O)C1CCCN(c2ncnc3onc(C)c23)C1 (stereo unspecified) | inactive: 75%
7 | Cc1nc2ccn(Cc3ccco3)c(=O)c2cc1C(=O)Nc1ccc(F)cc1 | inactive: 70%
8 | COc1ccc(NC(=O)Cn2nc(-c3ccccc3)c3cnc4ccc(C)cc4c32)cc1 | inactive: 45%
9 | O=C(CSc1ccccn1)Nc1ccc(Cl)cc1 | inactive: 105%
10 | COc1cc(OC)cc(C(=O)Nc2ccc(-c3nc4ccccc4s3)c(C)c2)c1 | inactive: 121%
11 | CN1CCN(C(=O)Cn2c(-c3cccs3)cc3ccccc32)CC1 | inactive: 66%
12 | Cc1ccc(N2C(=O)CS(=O)(=O)C23C(=O)N(Cc2ccccc2C)c2ccccc23)cc1Cl (stereo unspecified) | inactive: 83%
13 | Cc1ccc(OCC(=O)Nc2ccc3c(c2)sc(=O)n3C)cc1 | inactive: 110%
14 | COc1ccc(-n2c(=O)[nH]c3cc(C(=O)NCCc4ccc(Cl)cc4)ccc3c2=O)cc1OC | inactive: 78%
15 | COc1ccc(NC(=O)C(NC(=O)C2CCC(C)CC2)C(C)C)cc1 (stereo unspecified) | inactive: 66%
16 | CCC(Sc1ncccc1C(=O)Oc1ccccc1Cl)C(=O)Nc1ccccc1OC (stereo unspecified) | inactive: 71%
17 | Cc1ccc(-c2nc(C(=O)N3CCN(c4ccccc4)CC3)c3n2CCCCC3)cc1 | inactive: 82%
18 | Cc1nn(C)c2c1c(C(F)(F)F)cc(=O)n2C(C)C(=O)NCCC(C)C (stereo unspecified) | inactive: 77%
19 | Cc1ccc2c(=O)c(C(=O)c3ccccc3)cn(CC(=O)Nc3ccc(C)c(Cl)c3)c2n1 | inactive: 68%
20 | CCCNC(=O)c1ccc2c(c1)nc(C)n2-c1cccc(C)c1 | inactive: 82%
21 | Cc1ccc(-c2ccc(CCC(=O)O)n2-c2cccc(C)c2C)cc1 | inactive: 64%
22 | COc1ccc(NC(=O)c2c(C)oc3ccc(O)c(CN4CCCCCC4)c23)cc1 | inactive: 121%
23 | Cc1ccc(C)c(N2CCN(C(=O)CN3C(=O)COc4ccc(S(=O)(=O)N5CCC(C)CC5)cc43)CC2)c1 | inactive: 78%

Row | SMILES | survival
24 | CCOc1ccc(Br)cc1S(=O)(=O)Nc1cccc(-c2ccc(OC)nn2)c1 | inactive: 72%
25 | Cc1ccc(N2CCN(S(=O)(=O)c3ccc(-n4cnnn4)cc3)CC2)c(C)c1 | inactive: 97%
26 | CC(=O)O/N=C1/CC(C)(C)Cc2onc(C)c21 | inactive: 102%
27 | Cc1ccc(Cl)cc1N1CCN(C(=O)c2ccc3c(c2)N(Cc2ccccc2)CCS3)CC1 | inactive: 76%
28 | COc1ccc(-n2c(=O)c3c4c(sc3n(Cc3ccc(C(C)(C)C)cc3)c2=O)CCC4)c(OC)c1 | inactive: 62%
29 | CCn1nnc2cc(C(=O)Nc3ccc(OC)cc3)ccc21 | inactive: 73%
30 | Cc1cn2c(=O)cc(COC(=O)c3ccc(NC(=O)C(C)Oc4ccccc4)cc3)nc2s1 (stereo unspecified) | active: 0%
31 | CCOCCCNC(=O)c1c(NC(=O)c2nc(SC)ncc2Cl)sc2c1CCCC2 | inactive: 95%
32 | Cc1cc(C)nc(Nc2nc3ccccc3c(=O)[nH]2)n1 | inactive: 101%
33 | COc1ccc(CCNC(=O)c2cc(=O)[nH]c3ccc(S(=O)(=O)N4CCCCC4C)cc23)cc1OC (stereo unspecified) | inactive: 127%
34 | CS(=O)(=O)c1cccc(S(=O)(=O)c2cccc(S(C)(=O)=O)c2)c1 | inactive: 86%
35 | COc1cccc(NC(=O)Cc2csc(COc3cccc(C)c3)n2)c1 | inactive: 90%
36 | CCOC(=O)c1c(N)n(-c2cc(C)cc(C)c2)c2nc3ccccc3nc12 | inactive: 78%
37 | COc1ccc(OC)c(NC(=O)CCNC(=O)Cn2cnc3ccccc3c2=O)c1 | inactive: 65%
38 | Fc1ccc(Nc2c(-c3ccccn3)nc3ccc(Cl)cn23)cc1 | inactive: 73%
39 | O=C1CCCC/C1=C/Nc1ccc2c(c1)OCO2 | inactive: 105%
40 | O=C(Nc1cc(Cl)cc(Cl)c1)c1cc(S(=O)(=O)N2CCC3(CC2)OCCO3)ccc1F | inactive: 72%
41 | O=C(NCCc1ccccc1)c1nn(-c2ccccc2Cl)nc1CO | inactive: 86%
42 | COc1ccc2oc(-c3cccc(F)c3)cc(=O)c2c1 | inactive: 109%
43 | Cc1ccc(C)c(-n2nnc(C(=O)Nc3ccc(Br)cc3)c2C)c1 | inactive: 45%
44 | c1ccc(N2CCN(Cc3nnnn3Cc3ccc4c(c3)OCO4)CC2)cc1 | inactive: 107%
45 | COCCn1c(C)cc(O)c(C(c2ccc(OC)cc2)N2CCN(c3ccccc3)CC2)c1=O (stereo unspecified) | inactive: 49%
46 | CC1CCCCN1C(=O)CSc1c2c(nc3cc(Cl)ccc13)CCCC2 (stereo unspecified) | active: -1%

Row | SMILES | survival
47 | COc1cccc(N2CCN(C(=O)C3CCN(S(=O)(=O)c4cn(C)cn4)CC3)CC2)c1 | inactive: 148%
48 | CCOCCn1c(=O)c2c(nc3n2CCN3c2ccc(C)c(C)c2)n(C)c1=O | inactive: 85%
49 | Cc1cc(C)cc(NC(=O)COCc2cc(-c3ccc4c(c3)OCO4)on2)c1 | inactive: 47%
50 | Cc1ccc(-n2ncc3c(Nc4cccc(C(F)(F)F)c4)ncnc32)cc1C | inactive: 70%
51 | Cc1cc2c(cc1S(=O)(=O)NCc1ccccc1Cl)OCC(=O)N2 | inactive: 75%
52 | COc1cccc(-c2nc(CS(=O)(=O)CC(=O)NCCc3ccc(Cl)cc3)c(C)o2)c1 | inactive: 78%
53 | COc1ccc(OC)c(NC(=O)Cn2cnc3onc(-c4ccc(Cl)cc4)c3c2=O)c1 | inactive: 132%
54 | COc1ccc(NC(=O)CN(C)S(=O)(=O)c2ccc3c(c2)c(=O)n(C)c(=O)n3C)cc1 | inactive: 124%
55 | NS(=O)(=O)c1ccc(NC(=O)c2csnn2)cc1 | inactive: 80%
56 | CC(C)c1ccc(NC(=O)c2cnc3sc(N4CCOCC4)nn3c2=O)cc1 | inactive: 120%
57 | COc1ccc(OCC2c3cc(OC)c(OC)cc3CCN2C(=O)c2c(F)cccc2F)cc1 (stereo unspecified) | inactive: 121%
58 | Cc1ccc(C(=O)NCC(c2ccco2)S(=O)(=O)c2ccc(Cl)cc2)cc1C (stereo unspecified) | active: 14%
59 | CCCCNC(=O)c1cn(C)c2ccc(S(=O)(=O)N3CCCC3)cc2c1=O | inactive: 126%
60 | COc1ccc(-c2nc3ccc(Cl)cn3c2Nc2ccc(C)cc2)cc1 | inactive: 65%
61 | CCc1ccc(-n2nc(CO)c(C(=O)NCc3cccs3)n2)cc1 | inactive: 89%
62 | O=C1CCCc2c1[nH]c1ccccc21 | inactive: 118%
63 | Cc1ncsc1C(=O)O | inactive: 102%
64 | COc1cc(OC)c(NC(=O)Cn2cnc3sc(C)c(S(=O)(=O)N4CCC(C)CC4)c3c2=O)cc1Cl | inactive: 75%
65 | COc1ccc(N2CC(NC(=O)C(=O)c3c(C)[nH]c4ccccc34)CC2=O)cc1 (stereo unspecified) | inactive: 113%
66 | O=C(CSc1nc(=O)n(Cc2ccco2)c2c1CCC2)NCc1ccc(Cl)cc1 | inactive: 97%
67 | C=CCSc1nc(O)c(CC(C)C)c(=O)[nH]1 | inactive: 102%
68 | Cc1ccc(NC(=O)CCn2c(=O)c3cccn3c3ccccc32)cc1Cl | inactive: 74%
69 | Cc1ccc(C(=O)N2CCN(Cc3cc(=O)n4nc(-c5ccccc5)sc4n3)CC2)cc1 | inactive: 66%

Row | SMILES | survival
70 | Cc1cc(NC(=O)Nc2nnc(N3CCCCC3)s2)ccc1Br | inactive: 86%
71 | Cc1cc(C)n(-c2nc3ccccc3nc2Nc2cc(Cl)ccc2C)n1 | inactive: 131%
72 | Cc1cc(C)c2nc(N(Cc3cccnc3)C(=O)Cc3ccccc3)sc2c1 | inactive: 55%
73 | COc1ccccc1CNC(=O)CSc1nc(=O)[nH]c2c1CCCC2 | inactive: 75%
74 | CCN(Cc1ccccc1)C(=O)Cn1c(=O)n(-c2ccc(Cl)c(Cl)c2)c(=O)c2c(C)c(C(=O)N(C)C)sc21 | inactive: 75%
75 | COc1ccc(CCNC(=O)c2cc(=O)c3ccc(C)cc3o2)cc1OC | inactive: 97%
76 | CCCCCn1c(=O)[nH]c2cc(C(=O)NC(C)CC)ccc2c1=O (stereo unspecified) | inactive: 78%
77 | COc1ccc(C(=O)Nc2ccc3oc(-c4cccnc4)nc3c2)cc1OC | inactive: 99%
78 | CCOc1ccc(CNC(=O)c2ccc3c(c2)nc2n3CCCCC2)cc1 | inactive: 66%
79 | COCCn1c(=O)[nH]c2cc(C(=O)Nc3ccc(OC)cc3)ccc2c1=O | inactive: 138%
80 | CC(C)Oc1ccc(CNC(=O)C2CCN(Cc3cc4ccccc4n3Cc3ccccc3)CC2)cc1 | inactive: 93%
81 | Cc1ccc2c(c1)cc(C(=O)NCc1ccccc1C)n2C | inactive: 95%
82 | CCc1cnc2c(c1SCC(=O)Nc1ccc(C(=O)OC)cc1)c(=O)n(C)c(=O)n2C | inactive: 92%
83 | CCn1c2ccccc2c2cc(NC(=O)COc3cc(C)ccc3C)ccc21 | inactive: 18%
84 | Cc1cccc(Cn2c(COc3ccccc3)nc3ccccc32)c1 | active: -11%
85 | O=C(O)c1ccc(C(=O)c2cc(C(=O)O)ccc2C(=O)O)cc1 | inactive: 110%
86 | CC(C)(C)c1ccc(OCCOCCn2c(-c3ccc(Cl)cc3)nc3ccccc3c2=O)cc1 | inactive: 99%
87 | O=C(COC(=O)c1cccc(NC(=O)c2ccc(Br)cc2)c1)c1ccc(Cl)cc1 | inactive: 93%
88 | O=C(/C=C/c1ccccc1)Nc1nc2n(n1)C(c1ccc(F)cc1)C=C(c1ccccc1)N2 (stereo unspecified) | inactive: 59%
89 | CC(C)Oc1ccc(CNC(=O)c2ccc(NC(=O)N3CC(C)Sc4ccccc43)cc2)cc1 (stereo unspecified) | inactive: 72%
90 | Cc1cc(C)c(S(=O)(=O)NCC(c2ccco2)S(=O)(=O)c2cccs2)c(C)c1 (stereo unspecified) | inactive: 19%
91 | Cc1cc(Br)cc2c1N(Cc1ccccc1OC(C)C)C(=O)C2=O | active: 26%
